Experimental data reported in the supplement of paper PMC8728848.
Some of the results follow.

How the values were obtained:
Assay in all cases: glycan array binding signal (z-score within array); higher = stronger binding
Settings in all cases: glycan notation: IUPAC condensed, linker removed
[1] = molecular target: Fuc(a1-2)[Gal(a1-3)]Gal(b1-4)GlcNAc(b1-2)Man(a1-3)[Fuc(a1-2)[Gal(a1-3)]Gal(b1-4)GlcNAc(b1-2)Man(a1-6)]Man(b1-4)GlcNAc(b1-4)GlcNAc
In short: (§1)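 Arrays were curated from the Consortium for Functional Glycomics database, 3228 in total, and kept only where the protein sequence was available. Binding is expressed as a within-array Z-score. This score was averaged across arrays of the same protein sequence at different concentrations or buffers and across linkers, and negative values can be read as non-binding.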

[2] = molecular target: Fuc(a1-2)[Gal(a1-3)]Gal(b1-4)GlcNAc(b1-2)Man(a1-3)[Fuc(a1-2)[Gal(a1-3)]Gal(b1-4)GlcNAc(b1-2)Man(a1-6)]Man(b1-4)GlcNAc(b1-4)[Fuc(a1-6)]GlcNAc
In short: as §1

[3] = molecular target: Fuc(a1-2)[Gal(a1-3)]Gal(b1-4)GlcNAc(b1-3)GalNAc
In short: as §1

[4] = molecular target: Fuc(a1-2)[Gal(a1-3)]Gal(b1-4)GlcNAc(b1-3)[Fuc(a1-2)[Gal(a1-3)]Gal(b1-4)GlcNAc(b1-6)]GalNAc
In short: as §1

[5] = molecular target: Fuc(a1-2)[Gal(a1-3)]Gal(b1-4)GlcNAc(b1-6)GalNAc
In short: as §1

[6] = molecular target: Fuc(a1-2)[Gal(a1-3)]Gal(b1-4)[Fuc(a1-3)]Glc
In short: as §1

[7] = molecular target: Fuc(a1-2)[Gal(a1-3)]Gal(b1-4)[Fuc(a1-3)]GlcNAc
In short: as §1

[8] = molecular target: Fuc(a1-2)[Gal(a1-3)]Gal(b1-4)[Fuc(a1-3)]GlcNAc(b1-3)GalNAc
In short: as §1

[9] = molecular target: Fuc(a1-2)[Gal(a1-4)]Gal(b1-4)GlcNAc
In short: as §1

[10] = molecular target: Fuc(a1-2)[GalNAc(a1-3)]Gal
In short: as §1

[11] = molecular target: Fuc(a1-2)[GalNAc(a1-3)]Gal(b1-3)GalNAc(a1-3)[Fuc(a1-2)]Gal(b1-4)GlcNAc
In short: as §1

[12] = molecular target: Fuc(a1-2)[GalNAc(a1-3)]Gal(b1-3)GalNAc(b1-3)Gal(a1-4)Gal(b1-4)Glc
In short: as §1

[13] = molecular target: Fuc(a1-2)[GalNAc(a1-3)]Gal(b1-3)GlcNAc
In short: as §1

[14] = molecular target: Fuc(a1-2)[GalNAc(a1-3)]Gal(b1-3)GlcNAc(b1-2)Man(a1-3)[Fuc(a1-2)[GalNAc(a1-3)]Gal(b1-3)GlcNAc(b1-2)Man(a1-6)]Man(b1-4)GlcNAc(b1-4)GlcNAc
In short: as §1

[15] = molecular target: Fuc(a1-2)[GalNAc(a1-3)]Gal(b1-3)GlcNAc(b1-2)Man(a1-3)[Fuc(a1-2)[GalNAc(a1-3)]Gal(b1-3)GlcNAc(b1-2)Man(a1-6)]Man(b1-4)GlcNAc(b1-4)[Fuc(a1-6)]GlcNAc
In short: as §1

[16] = molecular target: Fuc(a1-2)[GalNAc(a1-3)]Gal(b1-3)GlcNAc(b1-3)GalNAc
In short: as §1

[17] = molecular target: Fuc(a1-2)[GalNAc(a1-3)]Gal(b1-3)GlcNAc(b1-6)GalNAc
In short: as §1

[18] = molecular target: Fuc(a1-2)[GalNAc(a1-3)]Gal(b1-4)Glc
In short: as §1

[19] = molecular target: Fuc(a1-2)[GalNAc(a1-3)]Gal(b1-4)GlcNAc
In short: as §1

[20] = molecular target: Fuc(a1-2)[GalNAc(a1-3)]Gal(b1-4)GlcNAc(b1-2)Man
In short: as §1

[21] = molecular target: Fuc(a1-2)[GalNAc(a1-3)]Gal(b1-4)GlcNAc(b1-2)Man(a1-3)[Fuc(a1-2)[GalNAc(a1-3)]Gal(b1-4)GlcNAc(b1-2)Man(a1-6)]Man(b1-4)GlcNAc(b1-4)GlcNAc
In short: as §1

[22] = molecular target: Fuc(a1-2)[GalNAc(a1-3)]Gal(b1-4)GlcNAc(b1-2)Man(a1-3)[Fuc(a1-2)[GalNAc(a1-3)]Gal(b1-4)GlcNAc(b1-2)Man(a1-6)]Man(b1-4)GlcNAc(b1-4)[Fuc(a1-6)]GlcNAc
In short: as §1

[23] = molecular target: Fuc(a1-2)[GalNAc(a1-3)]Gal(b1-4)GlcNAc(b1-3)Gal(b1-4)GlcNAc
In short: as §1

[24] = molecular target: Fuc(a1-2)[GalNAc(a1-3)]Gal(b1-4)GlcNAc(b1-3)Gal(b1-4)GlcNAc(b1-3)Gal(b1-4)GlcNAc
In short: as §1

[25] = molecular target: Fuc(a1-2)[GalNAc(a1-3)]Gal(b1-4)GlcNAc(b1-3)GalNAc
In short: as §1

[26] = molecular target: Fuc(a1-2)[GalNAc(a1-3)]Gal(b1-4)GlcNAc(b1-3)[Fuc(a1-2)[GalNAc(a1-3)]Gal(b1-4)GlcNAc(b1-6)]GalNAc
In short: as §1

[27] = molecular target: Fuc(a1-2)[GalNAc(a1-3)]Gal(b1-4)GlcNAc(b1-6)GalNAc
In short: as §1

[28] = molecular target: Fuc(a1-2)[GalNAc(a1-3)]Gal(b1-4)[Fuc(a1-3)]GlcNAc
In short: as §1

[29] = molecular target: Fuc(a1-2)[GalNAc(a1-3)]Gal(b1-4)[Fuc(a1-3)]GlcNAc(b1-3)GalNAc
In short: as §1

[30] = molecular target: Fuc(a1-2)[GalNAc(a1-4)]Gal(b1-4)GlcNAc
In short: as §1

B1: CML1 (Coprinopsis cinerea) (protein)
chain: MAIFHTGSELFIITRGPGKLTLLTWGGLNNLRSVIGAIPTENTGVTKWAVSFSHNYTRFSFIWEGQGEACYQIGNGLTRSPVGRSWSSSSTIHWGSSTVITEDVTSVVPGAVNRDKVTTAYALPDNL
glycan array binding signal (z-score) [1]: -0.242
glycan array binding signal (z-score) [2]: -0.336
glycan array binding signal (z-score) [3]: -0.341
glycan array binding signal (z-score) [4]: -0.341
glycan array binding signal (z-score) [5]: -0.339
glycan array binding signal (z-score) [6]: -0.333
glycan array binding signal (z-score) [7]: -0.34
glycan array binding signal (z-score) [8]: -0.284
glycan array binding signal (z-score) [9]: -0.314
glycan array binding signal (z-score) [10]: -0.333
glycan array binding signal (z-score) [11]: -0.319
glycan array binding signal (z-score) [12]: -0.352
glycan array binding signal (z-score) [13]: 2.92
glycan array binding signal (z-score) [14]: 1.14
glycan array binding signal (z-score) [15]: 0.392
glycan array binding signal (z-score) [16]: 0.251
glycan array binding signal (z-score) [17]: 1.59
glycan array binding signal (z-score) [18]: -0.315
glycan array binding signal (z-score) [19]: -0.358
glycan array binding signal (z-score) [20]: -0.348
glycan array binding signal (z-score) [21]: -0.269
glycan array binding signal (z-score) [22]: -0.355
glycan array binding signal (z-score) [23]: -0.346
glycan array binding signal (z-score) [24]: -0.31
glycan array binding signal (z-score) [25]: -0.337
glycan array binding signal (z-score) [26]: -0.348
glycan array binding signal (z-score) [27]: -0.357
glycan array binding signal (z-score) [28]: -0.359
glycan array binding signal (z-score) [29]: -0.335
glycan array binding signal (z-score) [30]: -0.305
